In publication PMC12136788:
Some of the results follow.

T1: UNK ZnF1-6 (called full-length) (human, UniProt Q9C0B0 30-357)
T1 sequence: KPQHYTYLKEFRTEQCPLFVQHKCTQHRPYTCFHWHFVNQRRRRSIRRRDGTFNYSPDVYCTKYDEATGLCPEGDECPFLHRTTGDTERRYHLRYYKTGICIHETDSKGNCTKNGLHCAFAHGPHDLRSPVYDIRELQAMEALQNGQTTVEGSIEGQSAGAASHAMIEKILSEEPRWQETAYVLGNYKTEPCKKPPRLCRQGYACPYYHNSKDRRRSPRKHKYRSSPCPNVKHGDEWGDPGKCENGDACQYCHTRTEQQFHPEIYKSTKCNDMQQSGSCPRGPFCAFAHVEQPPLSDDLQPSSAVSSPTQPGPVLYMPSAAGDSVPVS

B1: chr12:110381781:110381892:-|CDS|ENSG00000196510|unk|FALSE|unique (ssRNA)
RNA: GGGAGUUCUACAGUCCGACGAUCAAGGCCAUUCAGCUGAACAGUAAUAGUGUUCAAGCUCUGCUACUUAAGGGAGCAGCACUUAGGAACAUGGGCAGAGUCCAAGAAGCAAUAAUCCACUUUCGGGAGGCCAUACGGCUCGCACAACAGAGGAUUGAGCAUCA
B2: ENSG00000175470:stop:overlap|stop_codon|ENSG00000175470|stop_codon|NA|stop_codon (ssRNA)
RNA: GGGAGUUCUACAGUCCGACGAUCACAAUGUCAUUGCCGUGGCUGCCACCAAUAACUUGUACAUAUUCCAGGACAAAAUCAACUAGAGACGCGAACGUGAGGACCAAGUCUUGUCUUGCAUAGUUAAGCCGGACAUUUUUCUGUCAACAGAGGAUUGAGCAUCA
B3: chr12:66123492:66123593:-|3pUTR|ENSG00000139233|msi1|FALSE|unique (ssRNA)
RNA: GGGAGUUCUACAGUCCGACGAUCAUGCUACCCAAUAUCCAGUUAUAAUCAGGCCUCAACGUUCUGUCAGGUAUUAAUAUGGUUAGAAUUGUUCUUACAACUGGUAAUUAUAGUCAAUAGAGAUAAAACAGAUGAUGUACUGACCAACAGAGGAUUGAGCAUCA
B4: chrX:54470015:54470457:-|CDS|ENSG00000102302|control|control|control (ssRNA)
RNA: GGGAGUUCUACAGUCCGACGAUCUUCGUCAGUGAUGACGGGCCCCCCAGCCACAGCCUCUGCCCUGGGCCCCCUGCCCUGGCUAGUGUGCCUGUUGCCUUGGCCGACCCCCACCGGCCUGGCUCCCAAGAGGUUGACAGUGACCAACAGAGGAUUGAGCAUCA
B5: ENSG00000198589:be:win_5651|CDS|ENSG00000198589|bound_else_gene|NA|bound_elsewhere_windowed (ssRNA)
RNA: GGGAGUUCUACAGUCCGACGAUCUUAGCCAGACAAUGAAGGAUCAUCUAGUAAGAGUAGCAAAUGAAGCUGAAUUUAUCCUGAGCAGGCAGAGAGCAGAAGAUAUUCACAGACAUGCGGAAUUUGAGUCACUGUGUGCCCAGUCAACAGAGGAUUGAGCAUCA
B6: chr8:116643852:116643953:-|3pUTR|ENSG00000147677|unk|FALSE|unique (ssRNA)
RNA: GGGAGUUCUACAGUCCGACGAUCUGUUGUGAAUGAGGAAUUAGGAAUUAGGAGAAUGGUAGUACAUUGGGAAAAACAUAUUUUAGUAAUUUUUAUAUUUUAAAGAUAAUCACAGAUUUUGCUGUUUGUGCAUCACCAAAAUCACAACAGAGGAUUGAGCAUCA

target: T1, UNK ZnF1-6 (called full-length); experiment: nsRBNS (natural sequence RNA bind-n-seq); RBNS binding buffer (assumed for nsRBNS): 25 mM Tris pH 7.5, 150 mM KCl, 3 mM MgCl2, 0.01% Triton X-100, 500 ug/ml BSA, 20 U/ml SUPERase-In, 4 C; UNK is unkempt and MSI1 is Musashi-1; names of the RNAs are library labels; protein concentration not given here; high values mean tight binding

Row | Binder | binding signal [enrichment R]
1 | B1 | 0.854
2 | B2 | 0.704
3 | B3 | 0.916
4 | B4 | 1.48
5 | B5 | 0.983
6 | B6 | 22.5
